In the supplement of paper PMC7826260:
The list shows a part of the results. Each Rep nickase domain was tested in vitro on the same pool of single strands (3 µM enzyme, 1 h, 37 °C); shown is the middle of each 90-letter strand. Values are log2 of uncut reads against the no-enzyme pool; more negative means more cut, near 0 not cut, and no call is made. Because reads are shares of a total, they shift together, so uncut sequences can rise above 0 when many others are cut.

Each sequence was assayed on T1, Rep nickase domain of tomato golden mosaic virus (assay: uncleaved DNA left, log2 of reads against the no-enzyme library (log2 ratio); higher = less cleavage (more negative = more Rep cleavage of the k-mer); sequences stand for … in CTCGTCCG…ACCGGAGA).
T1 sequence (residues 1-124, tag not shown): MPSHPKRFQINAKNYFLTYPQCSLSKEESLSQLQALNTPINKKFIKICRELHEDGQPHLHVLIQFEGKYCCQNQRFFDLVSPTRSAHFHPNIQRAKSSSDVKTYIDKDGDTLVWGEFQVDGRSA
Experimental: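 A pool of 90-nt single-stranded DNAs with seven random bases just before the constant AC of the nick site (name = the seven bases) was cut by 3 µM recombinant His6-SUMO-tagged Rep nickase domain (300 nM DNA, 50 mM HEPES pH 8.0, 50 mM NaCl, 1 mM MnCl2, 1 h, 37 °C, three replicates). Uncut DNA was amplified and sequenced.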

| Sequence | uncleaved DNA left (log2) |
| --- | --- |
| TTCGATG | 0.0698 |
| ACTGTAA | 0.0158 |
| TATTTGA | 0.0109 |
| CTTGCTG | -0.192 |
| CTCGAGC | 0.00377 |
| GCTTAAC | -0.076 |
| ATTCTGC | -0.0187 |
| TTTTCCT | -0.148 |
| CATTCTA | -0.11 |
| ACTGTTC | 0.0738 |
| AAGAAAA | 0.0464 |
| GTACATA | 0.0393 |
| ATCCTGG | 0.0183 |
| CATTGGT | -0.0916 |
| ACCGATA | 0.0714 |
| ACACTGC | 0.144 |
| TCGTGGA | -0.0245 |
| TGATAAG | 0.13 |
| CGTCTGA | -0.0993 |
| GTACGCG | -0.00935 |

| Sequence | uncleaved DNA left (log2) |
| --- | --- |
| GCGTACC | 0.00533 |
| GTCATCC | -0.00405 |
| GCTTACA | 0.108 |
| AAGGCCA | 0.175 |
| CAGATAA | 0.02 |
| TTAAAAT | 0.0725 |
| CCTGTGT | -0.146 |
| TAGATCT | -0.203 |
| TGGTGCT | 0.00383 |
| GGGTGAT | -0.132 |
| CGGATCC | 0.136 |
| GCTTATC | 0.0884 |
| AAAATCT | -0.408 |
| ACCAGAG | 0.0489 |
| GCTGTAA | -0.0119 |
| GTAACCA | 0.0174 |
| CGCAATT | -0.279 |
| CCTTAAG | 0.0939 |
| AAAACCG | -0.0345 |
| TGAGGTT | 0.27 |
